Measurements as given in PubChem BioAssay (NCI).
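Cultured in 96-well plates, cells were exposed to test compound for 48 hours across five concentrations. GI50 is the concentration that inhibits growth by half. Definition used: TGI = concentration required for complete inhibition of growth.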

System: NCI-H322M lung
Experiment: growth of human tumour cells (NCI), 48 h

Compound	TGI [µM]	GI50 [µM]
Cn1nc(-c2ccccc2NC(=O)C(F)(F)F)c(=O)n(C)c1=S	> 100	
COC(=O)C1Cc2ccc(C)cc2C1=O (configuration not stated)	> 100	
CC12CC3CC/C(=N\O)C(C1)C3(N1CCOCC1)C/C2=N/O (configuration not stated)	> 100	
Cc1c(NC(=O)C(=O)N=NC(=O)c2ccncc2)c(O)c2ccccc2c1O	29.3	
CC(=O)N1c2ccccc2C(C)(C)OC1C(Cl)(Cl)Cl (configuration not stated)	> 100	
O=C1C2CC(Cl)C(SSC3CC4C(=O)N(SC(Cl)(Cl)C(Cl)Cl)C(=O)C4CC3Cl)CC2C(=O)N1SC(Cl)(Cl)C(Cl)Cl (configuration not stated)	9.46	
CC1=C(C(=O)Nc2ccccc2)C(c2ccc3c(c2)OCO3)C(C(=O)Nc2ccccc2)=C(C)N1	> 100	
Cc1cc(S(N)(=O)=O)c(SCc2nc(N)nc(N(C)C)n2)cc1Cl	> 10	
CC(=O)OCC1OC(Nc2ccc3nc(C)n(-c4cccc(C)c4)c(=O)c3c2)C(OC(C)=O)C(OC(C)=O)C1OC(C)=O (configuration not stated)	> 62.5	
COc1cccc(NC(=O)c2sc3nc4c(cc3c2N)CCCC4)c1	> 100	4.05
COc1ccccc1C(=O)/C=C/c1cc2cccc(OC)c2[nH]c1=O	5.73	0.291
CCCCOC(=O)C(=O)C(CC(C(=O)Cc1ccccc1)c1ccccc1)C(=O)C=C(C)C (configuration not stated)	> 100	
COc1cc(O)c(C(=O)/C=C/c2ccccc2)c(OC)c1	17.6	
CC(C)Nc1[nH]c(C(=O)c2ccccc2)c(N)c1C(=S)Nc1ccccc1	> 100	
Oc1c(C2=NNC(c3cccs3)C2)ccc2ccccc12 (configuration not stated)	> 100	
O=C1C=C[C@]2(C[C@@H](c3cccc(C(F)(F)F)c3)O[C@@H](c3cccc(C(F)(F)F)c3)O2)O1	26.8	10.3
COc1ccc(-c2oc3cc(O)c(OC)c(O)c3c(=O)c2OC2OC(CO)C(O)C(O)C2O)cc1 (configuration not stated)	> 100	
Nc1nc(Cl)c(C=O)c(NCC2(CO)CC(CCc3ccccc3)C2)n1 (configuration not stated)	26.4	
O=S(=O)(c1cc(Cl)ccc1Cl)N1CCN(c2ccc(Cl)c(Cl)c2)CC1	> 100	
CC(=O)O[C@H]1C(=O)[C@@]2(C)C([C@H](OC(=O)c3ccccc3)[C@]3(O)C[C@H](OC(=O)[C@H](O)[C@H](NC(=O)c4ccccc4)c4ccc(Cl)cc4)C(C)=C1C3(C)C)C1(OC(C)=O)CO[C@@H]1C[C@@H]2O (some centres not stated)	0.0736	
COc1ccc(-c2cc(-c3ccc(Nc4nc(Nc5ccc(Cl)cc5)nc(Nc5ccc(Cl)cc5)n4)cc3)nc(N)c2C#N)cc1	> 100	35
NC(N)=NS(=O)(=O)c1ccc(NC(=O)c2cccc3c(Nc4ccc(S(=O)(=O)N=C(N)N)cc4)c4ccc(Cl)cc4nc23)cc1	> 100	
COC(=O)[C@@H]1C=C[C@@H](C#N)n2c(=O)n(-c3ccccc3)c(=O)n21	> 100	
O=C1C2=C(c3ccccc31)C(c1cccc(Cl)c1)NC(=S)N2 (configuration not stated)	> 100	
Cc1ccc2c(c1)NC(c1ccc(C(=O)O)cc1)c1cccn1-2 (configuration not stated)	71.6	

Compound	TGI [µM]	GI50 [µM]
COc1cc(C(=O)O)c([N+](=O)[O-])c(OC)c1OC	> 100	
C[C@@H](c1ccc2nccn2c1)n1nnc2ncc(-c3cnn(C)c3)nc21	> 100	> 100
O=c1[nH]c2cc(C(F)(F)F)ccc2nc1Cc1ccccc1	> 100	
O=C(O)C(Cc1ccc2c(c1)CCC2)(Cc1ccc2c(c1)CCC2)C(=O)O	> 100	
CC[C@@H]1CN2CCC1C[C@@H]2C(O)c1ccnc2ccc(OCCN3CCN(CCOc4ccc5nccc(C(O)[C@@H]6C[C@@H]7CCN6C[C@@H]7CC)c5c4)CC3)cc12 (some centres not stated)	27.5	
CSc1c(C(=O)Nc2ccc(C)cc2)c(N)nn1-c1ccccc1	> 100	
O=C1C2=C(c3ccccc31)C(c1ccc(Cl)cc1)N1C(=O)CCSC1=N2 (configuration not stated)	> 100	
CC(Cl)(/C=C/Cl)C(Cl)/C=C/C(Cl)(CCl)CBr (configuration not stated)	24.1	
COc1cc2c(cc1OC)C(=O)C(Br)CC2 (configuration not stated)	28.3	14.9
CC(C)C1CC=NN1C(=O)OC(C)(C)C (configuration not stated)	> 100	
Cc1ccc(S(=O)(=O)NC(=O)NC(CO)C(=O)O)cc1 (configuration not stated)	> 100	
N#Cc1cccc(C2ON=C(c3ccc([N+](=O)[O-])cc3)N2C23CC4CC(CC(C4)C2)C3)c1 (configuration not stated)	> 100	
COc1cc(N(CCC#N)CCC#N)ccc1/C(N=Nc1ccc(C)cc1)=N/NC(=O)c1cc(Br)ccc1O	73.2	
O=C(Nc1n[nH]c2nc(-c3ccco3)c(Br)cc12)C1CC1	> 25	> 25
O=C1C(C(O)(C(F)(F)Cl)C(F)(F)Cl)CCC1C(O)(C(F)(F)Cl)C(F)(F)Cl (configuration not stated)	> 10	
Nc1nc(N)[n+]([O-])c(N)c1NCO	> 100	
CCOC(=O)N1CCN(Cc2cc(=O)n3cc(C)ccc3n2)CC1	> 100	
CC(=O)[CH-]C(=O)c1ccccc1.CC(=O)[CH-]C(=O)c1ccccc1.CCN(CC)CC[O-].CCN(CC)CC[O-].Cl.[Ti+4]	> 100	50.1
O=C(Cc1ccccc1)NN1C(=O)C(Cl)C1c1cccc(O)c1 (configuration not stated)	34.5	
O=C1/C(=C\c2ccc([N+](=O)[O-])cc2)Sc2scc(-c3ccc(O)c(O)c3)[n+]21	52.5	
NC(N)=NC(CC(=O)O)c1ccccc1 (configuration not stated)	> 100	
C/C(=N\N(C)C)c1sc(-n2nc(-c3ccccc3)cc2-c2ccccc2)nc1C	> 100	
O=C1c2cc3c(cc2-c2c1c1cc(Cl)c(Cl)cc1c(=O)n2CCCn1ccnc1)OCO3	> 100	0.0469
CSC(SC)=C1C(=O)NN=C1C	> 100	
O=C(O)C(CS)NCc1c2ccccc2[n+]([O-])c2ccccc12 (configuration not stated)	> 100	

Compound	TGI [µM]	GI50 [µM]
NCC(O)CNCC/C=C\C/C=C\C/C=C\C/C=C\C/C=C\C/C=C\CCCCC/C=C\CCNCC(O)CN (configuration not stated)	3.07	
CCOC(=O)c1c(O)[nH]c(=O)c(CC)c1C	> 100	
CC1=C(C(=O)Nc2ccc([N+](=O)[O-])cc2)C(c2ccco2)C(C(=O)Nc2ccc([N+](=O)[O-])cc2)=C(C)N1	> 100	
Cc1c2c(c(C)n1-c1ccccc1)C(=O)N(CCSC(=N)N)C2=O	> 100	
O=[N+]([O-])c1ccc(Sc2ncccn2)c([N+](=O)[O-])c1	24.6	12.1
COc1cc([C@@H]2c3cc4c(cc3[C@H](OC3OC5COC(C(C)C)OC5C(O)C3O)C3COC(=O)[C@@H]32)OCO4)cc(OC)c1O (some centres not stated)	80.7	
COc1ccc(/C=C2\CN(C(=O)CCN3CCC(=NO)CC3)C/C(=C\c3ccc(OC)cc3)C2=O)cc1	5.76	2.31
N#C/C(=C1\N=C(c2ccccc2O)Oc2ccccc21)c1ccc([N+](=O)[O-])cc1	> 100	
CC(=O)Oc1c(C)n(CCCl)ccc1=O	> 100	
O=C1CC2CC=C[C@H]3c4cc5c(cc4C(=O)N1C23)OCO5 (some centres not stated)	> 50	
O/N=C1\CCc2cc(-c3nc(C4CCNCC4)[nH]c3-c3ccncc3)ccc21	> 25	> 25
CCOC(=O)Cc1c(Cc2[nH]c(C(=O)OCc3ccccc3)c(CC(=O)OCC)c2CC(=O)OCC)[nH]c(C(=O)OCc2ccccc2)c1CC(=O)OCC	> 100	
O=C(c1ccc(Cl)cc1Cl)N(Cc1cccnc1)C(=S)N(Cc1cccnc1)C(=O)c1ccc(Cl)cc1Cl	12	
Cc1cccc(/C=N/NC(=S)NCc2ccccn2)n1	> 100	
CCOC(=O)c1cccc(NC(=O)CBr)c1	6.89	
CC(Cc1ccc(Cl)cc1Cl)NO (configuration not stated)	> 100	
O=C(Nc1ccncc1)C(=O)c1cn(S(=O)(=O)c2ccc(Br)cc2)c2ccccc12	> 100	> 100
O=C1/C(=C\c2ccc(Cl)cc2)CN(C(=S)Nc2ccccc2)C/C1=C\c1ccc(Cl)cc1	14.4	2.66
N=C(/C=C/c1ccc(-c2cn3cc(/C=C/C(=N)N4CCCC4)ccc3n2)cc1)N1CCCC1	> 100	
O=C(NCCN1C(=O)CN=C(c2ccc(Cl)cc2)c2cc(Cl)ccc21)OCc1ccccc1	83.9	
O=C1NCC2(CCNCC2)N1c1ccccc1	> 100	
O=C1CC(=O)N(C2CCCCC2)C(=O)N1c1ccccc1S(=O)(=O)Oc1ccccc1	> 100	
O=[N+]([O-])c1cccc(N=C2c3ccccc3CN2c2cccc([N+](=O)[O-])c2)c1	> 100	
CCCCCCCCCCCCc1ccc(C(=O)/C=C/C(=O)O)cc1	31.3	17.2
O=C(O)CN(c1ccc(Cl)cc1)S(=O)(=O)c1ccccc1	> 100	

Compound	TGI [µM]	GI50 [µM]
ClC(Cl)(Cl)C1CCOC1n1nc2ccccc2n1 (configuration not stated)	> 100	
CC(=O)OC1/C(=C/c2ccc([N+](=O)[O-])cc2)C[C@H]2[C@@H]3CC=C4C[C@@H](OC(C)=O)CC[C@]4(C)[C@H]3CC[C@]12C (some centres not stated)	> 100	
O=C(CCCc1c[nH]c2ccccc12)NC1CC(=O)c2c(Br)sc(Br)c21 (configuration not stated)	43.6	13.1
COc1cc(-c2cc(C(=O)N3CCN(C(=O)c4ccccc4NCc4ccco4)CC3)nc3cc(-c4ccccc4)nn23)cc(OC)c1OC	> 100	6.37
COc1cc2c(cc1OC)C1Cc3ccccc3CCN1CC2 (configuration not stated)	> 100	
CCN(CC)CCNC(=O)c1ccc([N+](=O)[O-])cc1OC	> 100	
CC1=C2C(=O)O[C@@H](c3ccoc3)[C@]2(C)CCC1=O	> 100	
CC(=O)OCCC1c2ccccc2-n2nc(-c3ccccc3)c(O)c21 (configuration not stated)	40.4	
COC1C=C(Nc2cccc(Cl)c2)C(=O)C1 (configuration not stated)	> 100	
CCC1(OC(=O)CN2CCN(CCO)CC2)C(=O)OCc2c1cc1n(c2=O)Cc2cc3ccccc3nc2-1 (configuration not stated)	11.8	
C1CCC([PH+](C2CCCCC2)C2CCCCC2[PH+](C2CCCCC2)C2CCCCC2)CC1.[Au].[CH-]1CCCCC1C1CCCC[N-]1 (configuration not stated)	1.48	0.37
C=C(c1ccccc1N)[C@@]1(O)C[C@H](/C(=C\C)CO)C[C@@H]1NCc1ccccc1	> 100	
CC1(C)N=C(N)N=C(N)N1c1cccc(/C=C/C=C/c2cccc([N+](=O)[O-])c2)c1	19.9	6.75
Cc1cc(NC(=O)C2c3ccccc3C(=O)N(CC(C)C)C2c2cccs2)no1 (configuration not stated)	> 100	> 100
CC(C)=CC(=O)CC(=O)C(=O)Nc1ccc(C)c(C)c1	> 100	
CCOC(=O)c1cccc(=O)c(C(=O)OCC)c1	> 100	
O=C(O)c1cccc(S(=O)(=O)NN2C(=O)CSC2c2ccccc2)c1 (configuration not stated)	> 100	
Cn1ncc2cc3c(Nc4ccc(Cl)cc4)cccc3nc21	68.6	
CC(=O)Oc1c(C)cc(-c2cc(C)c(OC(C)=O)c(C)c2)cc1C	> 100	
Cc1cn(CC2=NCCN2)c(=O)[nH]c1=O	> 100	
CC(NC1=CC(=O)c2ncccc2C1=O)C(O)c1ccccc1 (configuration not stated)	24.5	
CNNC1=NS(=O)(=O)c2cc(C)c(Cl)cc2S1	> 10	
